Experiment [1] has as its system human LT-HSPCs administered to cKit mice. In words: Engraftment (percent chimerism) of edited human LT-HSPCs in mice by flow cytometry. Type of experiment: in vivo, mouse. Conditions: for chimerism in bone marrow: FIG. 24B. Here is the method:
The cells were administered by intravenous injection to cKit mice at 2 days following electroporation. Recipient mice were treated with sublethal irradiation (100 cGy) at 1 day prior to administration of LT-HSPCs to eliminate hematopoietic cells in the bone marrow and enable engraftment of the donor cells. Animals were evaluated for presence of human hematopoietic cells in peripheral blood at 8 and 16 weeks following LT-HSPC administration. The bone marrow was also evaluated for engraftment and maintenance of the HBB gene-edit at 16 weeks following LT-HSPC administration.
(§1) Presence of human hematopoietic cells was measured by flow cytometry in mouse blood or bone marrow samples. Cells were gated on singlet, live cells. Mouse and human CD45-expressing hematopoietic cells were distinguished by antibodies targeting mouse or human CD45. Engraftment was measured as percent chimerism which was defined as the quantity of human CD45 positive cells divided by the total number of CD45 positive cells (e.g., human and mouse CD45 expressing cells combined). The lineage of human CD45 positive cells was determined using markers for CD19 (e.g., B cells), CD3 (e.g., T cells), CD33 (e.g., myeloid cells), and CD34 (hematopoietic stem/progenitor cells (HSPCs)).
Human LT-HSPCs were administered to mice following electroporation with Cas9/gRNA and AAV encoding a sickle cell mutation (E7V) as shown in FIG. 21. LT-HSPCs were mobilized from healthy donors using plerixafor. LT-HSPCs were gene-edited following 2 days in culture.
A dose of 0.5×10^6 cells was administered by intravenous injection to cKit mice at 2 days following electroporation. Recipient mice were treated with sublethal irradiation (100 cGy) at 1 day prior to administration of LT-HSPCs to eliminate hematopoietic cells in the bone marrow and enable engraftment of the donor cells. Animals were evaluated for presence of human hematopoietic cells in peripheral blood at 8 and 16 weeks following LT-HSPC administration. The bone marrow was also evaluated for engraftment and maintenance of the HBB gene-edit at 16 weeks following LT-HSPC administration.
Edited cells were administered in vivo as described in Example 5, and the level of engraftment of human hematopoietic progenitor cells was evaluated in mouse bone marrow. Briefly, a dose of approximately 5×10^6 per animal LT-HSPCs was administered by intravenous injection to cKit mice at two days post-editing. Recipient mice were treated with sublethal irradiation (100 cGy) at 1 day prior to administration of LT-HSPCs. At 16 weeks following administration, the presence of human hematopoietic cells in mouse bone marrow samples was evaluated by flow cytometry as described in Example 5. […] However, their ability to do so can depend on, for example, the donor from which the cells are obtained, method of isolation, culture conditions or cell cycle status.
In general terms: In flow cytometry, cells or beads pass a laser one at a time.

The test system is the same in experiment [2]. The experiment is described as follows: Lineage analysis of engrafted CD45-expressing human cells in mouse bone marrow. Conditions: bone marrow 16 weeks. The format is in vivo. Here is the method: as §1
Shown in FIGS. 18A-18B is lineage analysis of engrafted CD45-expressing human cells in mouse bone marrow samples collected at 16 weeks post administration of LT-HSPCs. The lineage of CD45-expressing human leukocytes was evaluated for unedited LT-HSPCs administered at a dose of 0.01×10^6, 0.05×10^6, 0.1×10^6, or 0.25×10^6 cells (FIG. 18A). The lineage of CD45-expressing human leukocytes was also evaluated for LT-HSPCs edited with AAV+RNP either in the presence or absence of i53 (FIG. 18B).
Shown in FIG. 25 is lineage analysis of engrafted CD45-expressing human cells in mouse bone marrow samples collected at 16 weeks post administration of LT-HSPCs. […]

The test system is the same in experiment [3]. The experiment is described as follows: Maintenance of HBB gene-edit by HDR in mouse bone marrow by NGS assay. Type of experiment: in vivo. To be noted: for levels of gene-editing in the HBB locus in bone marrow: Example 7, AAV.304, vs AAV+RNP alone, FIG. 26B. How it is done:
Maintenance of gene-editing was evaluated in mouse bone marrow collected at 16 weeks post-administration of LT-HSPCs. Incorporation of a sickle mutation (E7V) in the HBB locus was evaluated in DNA isolated from mouse bone marrow samples using the next generation sequencing assay described in Example 4. Shown in FIG. 19 is a comparison of HDR efficiency for LT-HSPCs edited either with or without i53. LT-HSPCs were electroporated with Cas9/gRNA and treated with AAV. […] LT-HSPCs edited in the presence of i53 had 1.8-fold higher HDR frequency in the bone marrow compared to cells edited with AAV+RNP alone.
Maintenance of gene-editing was evaluated in mouse bone marrow collected at 16 weeks post-administration of LT-HSPCs. Incorporation of a sickle mutation (E7V) in the HBB locus was evaluated in DNA isolated from mouse bone marrow samples using the next generation sequencing assay described in Example 4. […] LT-HSPCs were electroporated with Cas9/gRNA and treated with AAV prior to electroporation or following electroporation. Incorporation of the gene-edit in bone marrow samples was similar for LT-HSPCs edited with RNP and AAV given either pre-EP or post-EP. Additionally, incorporation of the gene edit in the HBB locus by HDR was compared for LT-HSPCs edited in the presence of i53 or Nu7441 (FIG. 26B).
The persistence of edits at the HBB gene locus in mouse bone marrow samples was also evaluated. Briefly, mouse bone marrow was isolated at 16 weeks post-administration of edited cells. Genomic DNA was isolated from the samples, and evaluated for incorporation of the edit encoded by AAV.323 at the HBB gene locus using the NGS assay as described in Example 4. Frequency of INDELs at the R02 cut site in the HBB gene locus was also assessed by NGS.

The subject of a further experiment is CD34-expressing LT-HSPCs. The experiment is described as follows: HDR incorporation of E7V sickle mutation at HBB locus by NGS assay.
[4] abbreviates: Example 7, 16 weeks, vs RNP+AAV alone.

Take “i53: polypeptide inhibitor of 53BP1 (SEQ ID NO: 70), introduced as an mRNA-encoded protein (ORF SEQ ID NO: 69)”: the “percent chimerism in bone marrow” value in experiment [1] (Example 5, 16 weeks, 0.25×10^6 LT-HSPCs, compared to AAV+RNP alone, FIG. 16) was “no further decrease”. Besides, the “human CD45-expressing cells among total CD45-expressing cells in the blood” value in experiment [1] (Example 5, blood at 8 and 16 weeks, RNP+AAV alone or in combination with i53, FIG. 17) is listed as 2-3%. In addition, in experiment [1] (setting [4]), the “chimerism in bone marrow” value is reported as “comparable”. In addition, in experiment [1] (Example 7, blood at 8 and 16 weeks, 0.5×10^6 cells, vs RNP+AAV alone, FIG. 23B), the chimerism in blood entry is “comparable”. Further, the “lineage distribution of engrafted human CD45-expressing cells” value in experiment [2] (Example 5, edited vs un-edited LT-HSPCs, FIG. 18B) is “no gross changes”. Also, the “incorporation of the gene edit by HDR in bone marrow” value in experiment [3] (Example 5, E7V, 16 weeks post-administration, FIG. 19) was 65%. Further, the “fold higher HDR frequency in the bone marrow” value in experiment [3] (Example 5, compared to cells edited with AAV+RNP alone, FIG. 19) is listed as 1.8 fold. The “levels of gene-editing in the HBB locus in bone marrow” value in experiment [3] (16 weeks) was “substantially higher”. Further, the “frequency of the AAV.323 gene edit incorporated by HDR in bone marrow” value in experiment [3] (Example 8, 16 weeks, FIG. 31B) was “maintained”. Further, the “incorporation of the E7V gene edit” value was found to be 68% in the experiment on CD34-expressing LT-HSPCs (AAV.307 + Cas9/R02 gRNA RNP, 1 μg mRNA encoding i53, FIG. 10) and 58% in the experiment on CD34-expressing LT-HSPCs (Example 6, AAV.304 pre-EP + RNP, 1 μg i53 mRNA, FIG. 22B). Besides, the “incorporation of the sickle cell gene-edit by HDR” value with CD34-expressing LT-HSPCs (LT-HSPCs isolated by Mozobil+GCSF, FIG. 12A) is given as “approximately 60%”. Also, the “fold increase in HDR efficiency” value in the experiment on CD34-expressing LT-HSPCs (LT-HSPCs isolated by Mozobil+GCSF, over RNP+AAV alone, FIG. 12A) is recorded as “approximately 1.5 fold”. Further, in the experiment with CD34-expressing LT-HSPCs (LT-HSPCs isolated using Mozobil alone, FIG. 12B), the “cells incorporating the sickle cell gene-edit” value was “approximately 70%”.
Consider `O=c1cc(N2CCOCC2)oc2c(-c3cccc4c3sc3ccccc34)cccc12` [Nu7441], for which, in experiment [1] (setting [4]), the “chimerism in bone marrow” value is reported as “higher”. For the same compound, the chimerism in blood entry in experiment [1] (Example 7, both 8 and 16 weeks, 5 μM Nu7441, FIG. 23B) is reported as “approximately 25%”. For the same compound, in experiment [1] (Example 7, over RNP+AAV alone, FIG. 23B), the “fold increase in chimerism in blood” value was determined as 2.5 fold. In addition, in experiment [2] (Example 7, compared to treatment with i53, FIG. 25), the “proportion of CD34-expressing cells and myeloid cells among human leukocytes” value is recorded as “greater proportion”. Also, the “levels of gene-editing in the HBB locus in bone marrow” value in experiment [3] (16 weeks) was “comparable”. In addition, the HDR efficiency entry in the experiment with CD34-expressing LT-HSPCs (Example 6, AAV.304 pre-EP + RNP, 5 μM Nu7441, over RNP+AAV alone, FIG. 22B) is “no improvement”.

(Values after patent publication US20210008161A1, “METHODS AND COMPOSITIONS FOR IMPROVED HOMOLOGY DIRECTED REPAIR” (CRISPR THERAPEUTICS AG, priority 2019, published 2021).)
